From PubChem BioAssay AID588855 (National Center for Advancing Translational Sciences (NCATS), 2011)
Hit rate of the full screen: of about 410,000 compounds, about 5,000 (1.2%) were called active. This list was built around the results that the source calls inconclusive (neither active nor inactive); the mix of calls is not that of the screen. Calls follow the shape of the dose curve; as a rule, active = well fitted inhibition curve with a large enough effect; inconclusive = small, poorly fitted or top-dose-only effect; inactive = no such curve, though single readings can be large or run the other way. A potency beside an inconclusive call is a rough fit, not a confirmed value.

assay: qHTS for Inhibitors of TGF-b; details: HepG2 CAGA-GFP TGF-b/SMAD3 reporter, GFP fluorescence, 18 h, TGF-beta stimulated, 500 pg/mL final; series mostly up to 46.1 µM; also: nearly all actives have a fitted effect of over 65% in size
Method in brief: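 Inhibition of TGF-beta-driven CAGA-GFP reporter expression in HEPG2 cells is measured by cellular GFP fluorescence after 18 h stimulation with 500 pg/mL recombinant TGF-beta in 1% FBS medium at 37 degrees C.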
Potency is read from the fitted curve at half-maximal effect; tags tell the direction and shape of the fitted curve.

Row | Structure (SMILES) | Potency
1 | Cc1nn(Cc2ccc(F)cc2)c(C)c1NC(=O)c1cnn2cccnc12 | inconclusive: 1.12 µM [inhibitor, partial curve, poor fit]
2 | COc1cc(OC)cc(-c2nnc(NC(=O)c3ccc4c(c3)OCCO4)o2)c1 | inactive
3 | COc1ccc(Cn2c(CNS(=O)(=O)c3ccc(Cl)s3)nc3cccnc32)cc1 | inconclusive: 20 µM [inhibitor, single point]
4 | CC(C)n1cc(C(=O)NC2CC(C)(C)Cc3c2cnn3-c2ccccc2)cn1 (stereo not given) | inactive
5 | O=C(CCc1ccc(Oc2cc([N+](=O)[O-])cc([N+](=O)[O-])c2)cc1)NC1CCCC1 | inconclusive: 35.5 µM [inhibitor, partial curve, poor fit]
6 | COc1ccc(OC)c(NC(=O)C2CCN(S(=O)(=O)c3c(C)noc3/C=C/c3ccc(C)cc3)CC2)c1 | inconclusive: 3.55 µM [inhibitor, single point]
7 | CCCCCNCc1ccc(Br)cc1 | inactive
8 | O=C1CN(C(=O)COC(=O)CCS(=O)(=O)c2ccccc2Cl)c2ccccc2N1 | inconclusive: 35.5 µM [inhibitor, single point]
9 | CNS(=O)(=O)c1cn(CC(=O)NCc2ccccc2OC)cc1S(=O)(=O)NC | inactive
10 | CC1CCCCN1CCCNC(=O)c1sc2ncccc2c1-n1cccc1 (stereo not given) | inactive
11 | CC(C)(C)CC(=O)Nc1nc(C(N)Cc2ccc(C(F)(F)F)cc2)cs1 (stereo not given) | inconclusive: 35.5 µM [inhibitor, single point]
12 | Cc1cc2ccccn2c1C(=O)c1ccc([N+](=O)[O-])o1 | active: 11.2 µM
13 | CC(C)c1ccc(C(=O)CC2(O)C(=O)N(CCc3ccccc3)c3ccc(Cl)cc32)cc1 (stereo not given) | active: 15.8 µM
14 | O/N=C/c1ccc2ccccc2n1 | inactive
15 | COc1ccc(OC)c(CN2CCN(C(=O)c3cc4ccccc4cc3O)CC2)c1 | inconclusive: 35.5 µM [inhibitor, single point]
16 | O=c1cc(-c2ccc(O)cc2)oc2ccc3ccccc3c12 | inconclusive: 22.4 µM [inhibitor, single point]
17 | COc1ccc(CN2CC[C@H]3C=CC[C@@H](C(=O)N4CCN(c5ccccc5)CC4)[C@H]3C2=O)cc1OC | inactive
18 | Cn1c2ccccc2c(=O)c2cc(C#Cc3ccc(N)cc3)ccc21 | inconclusive: 0.112 µM [inhibitor, full curve, poor fit]
19 | CC(C)(C)c1ccc(CC(=O)N2CCC2(C)C(=O)NCc2ccc(Cl)cc2)cc1 (stereo not given) | inconclusive: 35.5 µM [inhibitor, single point]
20 | Cc1cc(C(=O)CCl)c(C)n1-c1cccc([N+](=O)[O-])c1 | inconclusive: 25.1 µM [inhibitor, single point]
21 | Cc1cccc(NC(=O)Nc2ccc(C)c(C)c2)n1 | inconclusive: 35.5 µM [inhibitor, single point]
22 | COCCNc1nc(Nc2ccc(Cl)cc2F)c2sccc2n1 | inactive
23 | CCCNC(=O)C1(O)c2cc(Br)ccc2NC(=O)N1c1ccc(Cl)cc1 (stereo not given) | inactive
24 | Cc1cccc(OCCCCc2c(C)n[nH]c2C)c1C | inactive

Row | Structure (SMILES) | Potency
25 | O=c1[nH]c(C2CCN(S(=O)(=O)Cc3ccccc3)CC2)nc2c1nnn2Cc1cccc(Cl)c1 | inconclusive: 35.5 µM [inhibitor, single point]
26 | CC(=O)c1ccc(NC(=O)CSc2nc3c(=O)n(C)c(=O)n(C)c3n2C)cc1 | inactive
27 | CCCSc1nnc(NC(=O)Cc2coc3cc(C)ccc23)s1 | inactive
28 | O=S(=O)(NCc1ccccc1)c1ccccc1NCCc1ccccc1 | inconclusive: 35.5 µM [inhibitor, single point]
29 | CSc1cccc(N2CC(C(=O)N3CCN(S(=O)(=O)c4ccccc4Cl)CC3)CC2=O)c1 (stereo not given) | inconclusive: 31.6 µM [inhibitor, single point]
30 | CCN(CCCNC(=O)COc1cc(=O)n(C)c2ccccc12)c1ccccc1 | inactive
31 | CCCCCCc1cc2cc(-c3nnc(-c4ccccc4OC)o3)c(=O)oc2cc1O | inactive
32 | COc1ccc(-n2c(=O)c3c4c(sc3n(CC(=O)C(C)(C)C)c2=O)CCCC4)c(OC)c1 | inactive
33 | CN(C(=S)Nc1ccc(Oc2ccccc2)cc1)c1ccc(O)cc1 | inconclusive: 25.1 µM [inhibitor, partial curve, poor fit]
34 | CCN1CCN(S(=O)(=O)c2ccc(OC)c(NC(=O)c3ccccc3F)c2)CC1 | inactive
35 | Clc1ccc(CN2CCN(c3ncnc4scc(-c5cccs5)c34)CC2)cc1 | inconclusive: 15.8 µM [inhibitor, single point]
36 | COc1ccc2[nH]c3c(c2c1)CCN1C(=O)C(CC(=O)NCc2cccc(C(F)(F)F)c2)C[C@H](C(=O)N2CCCCC2)[C@@]31CCc1ccccc1 (stereo not given in full) | inconclusive: 35.5 µM [inhibitor, partial curve, poor fit]
37 | CCOc1cc2c3c(c1)C1(Nc4ccccc4S1)C(=O)N3C(C)(C)CC2C (stereo not given) | active: 12.6 µM
38 | C/C(=N\NC(=O)C(C)n1nc(C)c([N+](=O)[O-])c1C)c1ccccc1O (stereo not given) | inconclusive: 20 µM [inhibitor, partial curve, poor fit]
39 | CC(C)(C)[C@@H]1COC(=O)[C@@H](Cc2ccc(F)cc2)C/C=C\C[C@H](CC(=O)N(CCO)Cc2ccccc2)C(=O)N1 | inconclusive: 12.6 µM [inhibitor, single point]
40 | CC(C)OCCCNC(=O)c1ccc(CN2CCc3ccccc3C2)cc1 | inconclusive: 14.1 µM [inhibitor, single point]
41 | COc1ccc(C2=NC(C(F)(F)F)(C(F)(F)F)c3c(n(C)c(=O)n(C)c3=O)N2)cc1 | inconclusive: 35.5 µM [inhibitor, partial curve, poor fit]
42 | O=C(/C=C\c1ccco1)Nc1ccc(N2CCN(C(=O)c3ccccc3)CC2)cc1 | inconclusive: 1.26 µM [inhibitor, partial curve, poor fit]
43 | CCn1nc(C)cc1C(=O)NC1CCCc2c1cnn2-c1cc(F)cc(F)c1 (stereo not given) | inactive
44 | Cc1ccc(-c2ccc(CCC(=O)O)n2-c2ccc(C)c(Cl)c2)cc1 | inconclusive: 22.4 µM [inhibitor, single point]
45 | CC(C)CNC(=S)NC(=O)c1csc([N+](=O)[O-])c1 | inconclusive: 11.2 µM [inhibitor, partial curve, poor fit]
46 | Cn1c(SCC(=O)N2CCN(c3ccccc3)CC2)nnc1-c1ccncc1 | inactive
47 | CCCn1c(-c2ccc(OC)cc2)nc2ccccc21 | inactive
48 | Cc1ccc(S(=O)(=O)N2[C@@H](c3ccc(C#N)cc3)C(C(=O)O)=C[C@H]2CC2CCCC2)cc1 | inconclusive: 35.5 µM [inhibitor, partial curve, poor fit]

Row | Structure (SMILES) | Potency
49 | COc1ccc(S(=O)(=O)N(C)C)cc1NC(=O)c1ccc2c(c1)OCCO2 | inactive
50 | CC(Oc1ccc(Br)cc1)C(=O)Nc1ccc(S(=O)(=O)NC2=NCCCCC2)cc1 (stereo not given) | inconclusive: 20 µM [inhibitor, single point]
51 | C[C@H](CO)N1C[C@H](C)[C@@H](CN(C)Cc2ccccc2)Oc2c(NC(=O)c3ccncc3)cccc2C1=O | inactive
52 | COc1ccc(NC(=O)CN2CCN(C3c4ccccc4-c4ccccc43)CC2)c(OC)c1 | inactive
53 | CSc1ccc(CN(C)CC(=O)Nc2ccccc2Br)cc1 | inconclusive: 20 µM [inhibitor, partial curve, poor fit]
54 | CCOC(=O)C1(Cc2ccccc2C)CCCN(S(=O)(=O)CC)C1 (stereo not given) | inactive
55 | c1ccc(-c2cc3cc4c(cc3cn2)OCO4)cc1 | inconclusive: 11.2 µM [inhibitor, partial curve, poor fit]
56 | Cc1ccc(-c2noc(N=O)c2NO)cc1 | inconclusive: 35.5 µM [inhibitor, single point]
57 | Cc1ccc2cc(CN(CC3CCCO3)C(=O)NC3CCCCC3)c(=O)[nH]c2c1C (stereo not given) | inactive
58 | O=[N+]([O-])c1ccc2c(c1)-c1ccccc1C2=NO | inconclusive: 17.8 µM [inhibitor, partial curve]
59 | Cc1ccc(C)c(NC(=O)Cn2c(=O)n(CCCS(=O)(=O)C3CCCCC3)c(=O)c3ccccc32)c1 | inconclusive: 14.1 µM [inhibitor, partial curve, poor fit]
60 | O=C(Nc1ccc(C(=O)N2CCCC2)cc1)c1ccccc1 | inactive
61 | COC(=O)c1ccc(OCC(=O)N2CCCc3ccccc32)cc1 | inactive
62 | CCN(Cc1ccccc1)S(=O)(=O)c1ccc(N2CCCCS2(=O)=O)cc1 | inactive
63 | Cc1nc(N2CCCCC2C)c2c(C)c(C(=O)Nc3ccccc3C(F)(F)F)sc2n1 (stereo not given) | inconclusive: 17.8 µM [inhibitor, single point]
64 | CCc1cccc(CC)c1NC(=O)/C(C#N)=C/c1ccccc1C(F)(F)F | active: 12.6 µM
65 | CCCC(=O)N1CCN(c2ccc(NC(=O)c3ccc([N+](=O)[O-])o3)cc2Cl)CC1 | active: 5.62 µM
66 | CC(C)c1ccc(NC(=O)Nc2nc(C(N)c3ccccc3Cl)cs2)cc1 (stereo not given) | inconclusive: 35.5 µM [inhibitor, single point]
67 | Cc1cc(Br)ccc1NC(=O)c1ccccc1-c1ccccc1 | inactive
68 | O=c1c2ccccc2n2c(-c3cccc(Cl)c3)nnc2n1Cc1ccccc1 | inconclusive: 5.62 µM [inhibitor, single point]
69 | C=CC[C@@H](Cc1ccc(F)cc1)C(=O)OC[C@H]1CCCN1C(=O)[C@@H](CC=C)CC(=O)N[C@@H](CO)Cc1ccccc1 | inconclusive: 15.8 µM [inhibitor, single point]
70 | CCCN(CCC)Cc1cc(=O)oc2cc(C)c(C)cc12 | inconclusive: 20 µM [inhibitor, partial curve, poor fit]
